From the RNAGym collection of RNA variant scans (doi:10.1093/nar/gkz1192)
Read counts are not given, so values of variants with three or more changes are uncertain.

B1: CPEB3 Ribozyme (parent)
chain: UAACAGGGGGCCACAGCAGAAGCGUUCACGUCGCAGCCCCUGUCAGAUUCUGGUGAAUCUGCGAAUUCUGCUGUAUAUCUC

Variants of: B1
Assay: self-cleavage, relative activity (ratio to wild type); higher = more cleavage; in vitro, sequencing
Summary of the method: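 Relative activity compares each variant's cleaved/total read fraction with that of the unmutated ribozyme. To get these fractions, barcoded CPEB3 ribozyme libraries from rounds of error-prone PCR were transcribed with T7 RNA polymerase for 5 hours at 37°C and then given 15 min of DNase I treatment before EDTA was added. The RNAs were reverse transcribed with template switching and sequenced on Illumina, and DNA sequencing linked barcodes to variants. A minimum of 5 reads applied, and three batches were averaged.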
UAACAGGGGGCCACAGCAGAAGCGUUCACGUCGCGGCCACUGUCAGAUUCUGGUGAAUCUGCGAAUUCUGAUGUAUAUCUC showed a self-cleavage of 0.13.
With UAACAGGGGGCCACAGCAGAAGCGUUCACGUCGCGUCCCCCGUCAGAUUCUGGUGAAUCUGCGAAUUCUGCUGUAUAUCUC the self-cleavage was 1.04.
In the case of UAACAGGGGGCCACAGCAGAAGCGUUCACGUCGCGGCCCAUGUCAGAUUCUGGCGAAUCUGCGAUUUCUGCUGUACAUCUC, the self-cleavage is reported as 0.11.
UAACAGGGGGCCACAGCAGAAGCGUUCACGUCGCGGCCACCGUCAGUUUCUGGUGAAUCUGCGAAUUCUGCUGUAUAUCUC showed a self-cleavage of 0.54.
In the case of UAACAGGGGGCCACAGCAGAAGCGUUCACGUCGCGGCCCAUGUCAGAUUCUGGUGAAUCUGCGAAUUCCGCUGUAUAUCUC, the self-cleavage is reported as 0.19.
Work on UAACAGGGGGCCACAGCAGAAGCGUUCACGUCGCGGCCCUUGUCAGAUUCCGGUGAAUCCGCGAAUUCUGCUGUAUAUCUC yielded a self-cleavage of 0.63.
Variant UAACAGGGGGCCACAGCAGAAGCGUUCACGUCGCGGCCCAUGUCAGGUUCUGGUGAAUCUGCGUAUUCUGCUGUAUAUCUC has a self-cleavage of 0.14.
UAACAGGGGGCCACAGCAGAAGCGUUCACGUCGCGGCCUCUGUCAGAUUCUGGCGAAUCUGCGAAUUCUGCUGUAUAUCAC showed a self-cleavage of 1.26.
Work on UAACAGGGGGCCACAGCAGAAGCGUUCACGUCGCGGCCCCUGUCAGAUUCUGGUGAAUCUGCGAGUUCUGCUGCAUAUCCC yielded a self-cleavage of 1.27.
UAACAGGGGGCCACAGCAGAAGCGUUCACGUCGCGGCUCCAGUCAGAUUGUGGUGAAUCUGCGAAUUCUGCUGUAUAUAUC gave a self-cleavage of 0.26.
In the case of UAACAGGGGGCCACAGCAGAAGCGUUCACGUCGCGGCCACUGUCAGGUUCUGGUGAGUCUGCGGAUUCUGCUGUAUAUUUC, the self-cleavage is reported as 0.12.
With UAACAGGGGGCCACAGCAGAAGCGUUCACGUCGCGGUCCCUGUCAGAUUCUGGUGAAUCUGCGAAUUCUGCUGUAUAUCCC the self-cleavage was 1.22.
In the case of UAACAGGGGGCCACAGCAGAAGCGUUCACGUCGCGCCCCCUGGCAGAUUCUGGUGAGUCUGCGAAUUCUGCUGUAUAUCUC, the self-cleavage is reported as 0.05.
In the case of UAACAGGGGGCCACAGCAGAAGCGUUCACGUCGCGGCCCCUGUCAGAUUCUGCUGAAUCGGCGAAUCCUGCAGUAUAUCUC, the self-cleavage is reported as 0.35.
For UAACAGGGGGCCACAGCAGAAGCGUUCACGUCGCGGCCCCUGUCAGAUUCUGCUGAAUCUGCGAAUUCAGCUGUAUAUCUC, the self-cleavage was 1.17.
With UAACAGGGGGCCACAGCAGAAGCGUUCACGUCGCGGCCCCUGUCAGAUUCUGGUGAAUCUGCGUAUUCAGCUGUAUAUCUC the self-cleavage was 0.72.
UAACAGGGGGCCACAGCAGAAGCGUUCACGUCGCGGCCCCUGUCAGAUUCUGGUGAAUCUGCGUAUUCUGCCGUAUAUCUC showed a self-cleavage of 0.93.
For UAACAGGGGGCCACAGCAGAAGCGUUCACGUCGCGGCCCCUGUCAAAUUCUGGUGAAUCUGCGGAUUCUGCUGUAUAUCUC, the self-cleavage was 1.13.
Work on UAACAGGGGGCCACAGCAGAAGCGUUCACGUCGCGGCCCCUGUCAGAUUCUAGUGAAUCUGCGAAUCCAGCUGUAUAUCUC yielded a self-cleavage of 0.69.
With UAACAGGGGGCCACAGCAGAAGCGUUCACGUCGCGGCACCUGUCAGAUUCUGGUGAAUCUGCGAAUCCUGCUGUAUAUCUC the self-cleavage was 0.19.
UAACAGGGGGCCACAGCAGAAGCGUUCACGUCGCGGCCCUUGUCAGAUUCUGGCGAAUCCGCGAAUUCUGCUGUAUAUCUC gave a self-cleavage of 0.4.
UAACAGGGGGCCACAGCAGAAGCGUUCACGUCGCGGCACCUAUCGGAUUCUGGUGAAUCUGCGAAUUCUGCUGUAUAUCUC gave a self-cleavage of 0.24.
In the case of UAACAGGGGGCCACAGCAGAAGCGUUCACGUCGCGGCCCCUGUCAGAUUCUCGGGAAUCUGCGAAUUCUGCUGUAUAUCUC, the self-cleavage is reported as 1.28.
UAACAGGGGGCCACAGCAGAAGCGUUCACGUCGCGGCACCUGUCAGAUUCUGGUGAAACUGCGAAUUCUGCUGUAUAUCUC showed a self-cleavage of 0.27.
With UAACAGGGGGCCACAGCAGAAGCGUUCACGUCGCGGCCCCUGUCAGAUUCUGGUGAAUCUGCGAGUUCUGCUGUAUAACUC the self-cleavage was 1.27.
UAACAGGGGGCCACAGCAGAAGCGUUCACGUCGCGGCCCCUGUCAGAUUCUGGUGAAUCUGCGGAUUCUGCUGCAUAUCUC gave a self-cleavage of 1.29.
UAACAGGGGGCCACAGCAGAAGCGUUCACGUCGCGGCCCCUGUCAGAUUCUGGUGAAUCUGCGAGUUCAGCUGUAUAUCUC gave a self-cleavage of 0.7.
UAACAGGGGGCCACAGCAGAAGCGUUCACGUCGCGGCCCCUGUCAGAUUCUAGUGAAUCCGCGUAUACUGCUGUAUAUCUC showed a self-cleavage of 0.71.
UAACAGGGGGCCACAGCAGAAGCGUUCACGUCGCGCCCCCUGUCAGAUUCUGGUGAAUCUGCGAAUUCUGCUGUAUACCUC showed a self-cleavage of 0.11.
For UAACAGGGGGCCACAGCAGAAGCGUUCACGUCGCGGCCCAUGUCAGAUUCUGGUGAAUCUGCGAAUUCUGCUGUAUGUCUC, the self-cleavage was 0.3.
UAACAGGGGGCCACAGCAGAAGCGUUCACGUCGCGGGCCCUGACAGAUUCCGGUGAAUCUGCGAAUUCUGCUGCAUAUCCC gave a self-cleavage of 0.87.
Work on UAACAGGGGGCCACAGCAGAAGCGUUCACGUCGCGGCCCUUGUCAGAUCCUGGUGGAUCUGCGAGUUCUGCUGUAUAUCUC yielded a self-cleavage of 0.81.
UAACAGGGGGCCACAGCAGAAGCGUUCACGUCGCGGCCCCUAUCUGAUUCUGGUGAAUCCGCGAAUUCUGCUGUAUAUCUC showed a self-cleavage of 0.19.
Work on UAACAGGGGGCCACAGCAGAAGCGUUCACGUCGCGGCCCCUGUCAGAUUCUGCUGAAUCUGCGAAUCCUGCCGUAUAUCUC yielded a self-cleavage of 0.6.
For UAACAGGGGGCCACAGCAGAAGCGUUCACGUCGCGACCCCCGUCAGAUUCUGGUGAAUCUGCGAAUUCUGCUGUAUAUCUC, the self-cleavage was 1.34.
Variant UAACAGGGGGCCACAGCAGAAGCGUUCACGUCGCGGCCCCUGUCAAAUUCUGGUGAAUCUGUGAAUUCUGCUGUAUAUCUC has a self-cleavage of 0.18.
For UAACAGGGGGCCACAGCAGAAGCGUUCACGUCGCGGCCCCUGUCAGAUUCUGGUGAAUCUGUGAAUUCGGCUGUAUAUCUC, the self-cleavage was 0.48.
In the case of UAACAGGGGGCCACAGCAGAAGCGUUCACGUCGCGGCCCCUGUCAGAUUCUGGUGAAUCUGCGUAUUCUGCUGUAUAACUC, the self-cleavage is reported as 1.33.
In the case of UAACAGGGGGCCACAGCAGAAGCGUUCACGUCGCGGCCCAUGUCAGAUUCUGGUGAAUCUGCGAAUUCUGCUGUUUAUCUC, the self-cleavage is reported as 0.6.
In the case of UAACAGGGGGCCACAGCAGAAGCGUUCACGUCGCGGCCCCUGUCAGAUUCUGGUGAAUCUGUGAAUUCUGCUGUAUAUCAC, the self-cleavage is reported as 0.17.
With UAACAGGGGGCCACAGCAGAAGCGUUCACGUCGCGGCCCAUGUCAGAUUCUGGUGAAUCUGCGAAUACAGCUGUAUUUCUC the self-cleavage was 0.08.
UAACAGGGGGCCACAGCAGAAGCGUUCACGUCGCGACCCCUGUCAGAUUCUGGUGAACCUGCGAAUUCUGCUGUAUAUCUC showed a self-cleavage of 0.32.
With UAACAGGGGGCCACAGCAGAAGCGUUCACGUCGCGGCCCCUGUCAGAUUCUGGUGAAUCUGCGAGUUCUGCUGUAUGUCUC the self-cleavage was 1.04.
UAACAGGGGGCCACAGCAGAAGCGUUCACGUCGCGGCCCAUGUCAGAUUCUGGUGGAUCUGCGAAUUCUGCUGUAUAUCUC showed a self-cleavage of 0.47.
UAACAGGGGGCCACAGCAGAAGCGUUCACGUCGCGGCCCCUGUCAGAUUCUAGUGAAUCUGCGAAUUCUGCCGUAUACCUC showed a self-cleavage of 1.44.
UAACAGGGGGCCACAGCAGAAGCGUUCACGUCGCGGCCCAUAUCAGAUUCUGGUGAAUCUGCGGAUUCUGCUGUAUAUCUC gave a self-cleavage of 0.1.
For UAACAGGGGGCCACAGCAGAAGCGUUCACGUCGCGGCCCCUGUCAGAUUCUGGUGAAUCUGCGAGUUCUGCUGUAGAUCUC, the self-cleavage was 1.2.
UAACAGGGGGCCACAGCAGAAGCGUUCACGUCGCGGCCCCUGUCAGAUUCUGGUGAAUCUGCGAAUUAUGAUGUAUACCUC gave a self-cleavage of 0.93.
For UAACAGGGGGCCACAGCAGAAGCGUUCACGUCGCGACCCUUGUCAGAUUCUGGUGAAUCUGCGAAUUCUGCUGUAUACCUC, the self-cleavage was 0.31.
UAACAGGGGGCCACAGCAGAAGCGUUCACGUCGCGGCCACUGUCAGGUUCUGGAGAAUCUGCGAAUUCUGCUGUAUAUCUC showed a self-cleavage of 0.63.
Variant UAACAGGGGGCCACAGCAGAAGCGUUCACGUCGCGGCCCCUGUUAGAUUCUGGUGAAUCUGCGAAUUCUGCCGUAUAUAUC has a self-cleavage of 1.06.
UAACAGGGGGCCACAGCAGAAGCGUUCACGUCGCGGCCCUUGUCAGAUUCUGGUGAAUCAGCGAAUUCUGCUGUAUAUCUC gave a self-cleavage of 0.75.
For UAACAGGGGGCCACAGCAGAAGCGUUCACGUCGCGGCCUCUGUCAGAUUCUGGCGAAUCUGCGAAUUCAGCUGUGUAUCUC, the self-cleavage was 1.13.
UAACAGGGGGCCACAGCAGAAGCGUUCACGUCGCGGCCCCUGUUAGGCUCUGGUGAUUCUGCGAAUCCUGCUGCAUAUCUC showed a self-cleavage of 0.03.
For UAACAGGGGGCCACAGCAGAAGCGUUCACGUCGCGGCCCCUGUCAGAUUCUGGUGAAUCUGCGAGUUCUGCCGUAUAUCUC, the self-cleavage was 1.06.
For UAACAGGGGGCCACAGCAGAAGCGUUCACGUCGCGGCCCCUGUCAGAUUCUGCUGAAUCUGCGAAUUCUGCAGUAUAUCUC, the self-cleavage was 1.21.
In the case of UAACAGGGGGCCACAGCAGAAGCGUUCACGUCGCGGACCCUGUCAGAUUCUGGUGAAUCUGCGGAUUCUGCUGCAUAUCUC, the self-cleavage is reported as 1.12.
For UAACAGGGGGCCACAGCAGAAGCGUUCACGUCGCGGGCCCUGCCAGAUUCUGGUGAAUCUGCGAAUUCUGCUGUAUAUUUC, the self-cleavage was 0.63.
With UAACAGGGGGCCACAGCAGAAGCGUUCACGUCGCGGCACCUGUCAGAUUCUGGUGUAUCUGCGAAUUCUGAAGUAUAUCUC the self-cleavage was 0.17.
With UAACAGGGGGCCACAGCAGAAGCGUUCACGUCGCGGACCCUGUCAGAUUCUGGGGAAUCUGCGAAUUCUGCUGUGUAUCUC the self-cleavage was 0.6.
UAACAGGGGGCCACAGCAGAAGCGUUCACGUCGCGGCCCCUUACAGAUUCUGGUGAAUCUGCGAAUUCUGCUGUAUAUCUC showed a self-cleavage of 0.32.
Variant UAACAGGGGGCCACAGCAGAAGCGUUCACGUCGCGGCCCCUGUCAAAUUCUGGUGAAUCUGCGAAUUCUGCUGUAUAACAC has a self-cleavage of 1.27.
UAACAGGGGGCCACAGCAGAAGCGUUCACGUCGCGGCCCCUGUCAGAUUCUGGUGAAUCUGCGAUUUCUGCUGUAAAUCUC showed a self-cleavage of 0.89.
UAACAGGGGGCCACAGCAGAAGCGUUCACGUCGCGGCUCCUGUCGGAUUCUGGUGAAUCUGCGAAUUCUGCUGUAUAUCUC showed a self-cleavage of 1.24.
Work on UAACAGGGGGCCACAGCAGAAGCGUUCACGUCGCGGCCCCUGUCAGAUUCUGGUGAAUCUGCGAGUUCUGCUGUAUAUCAC yielded a self-cleavage of 1.14.
UAACAGGGGGCCACAGCAGAAGCGUUCACGUCGCGGUCCCUGCCAGAAUCUGGUGAAUCUGCGAAUUCUGCUGUAUAUCUC gave a self-cleavage of 0.31.
UAACAGGGGGCCACAGCAGAAGCGUUCACGUCGCGGCACCUGUCAGAUUCUGGUGAAUCUGCGAAUUCUGAUAUAUAUCUC showed a self-cleavage of 0.65.
UAACAGGGGGCCACAGCAGAAGCGUUCACGUCGCGGCCCCUGUCAGAUUCUGUUGAAUCUGCGAAUUCUGCUGUAUAUCCC showed a self-cleavage of 1.29.
